{"source": "PubChem BioAssay AID504832", "about": "(National Center for Advancing Translational Sciences (NCATS), 2011)", "note": "Out of some 310,000 compounds screened, about 18,000 (5.8%) were called active. Inconclusive results, whose numbers are uncertain, are shown with a selection of clear calls. The call rests on the fitted dose curve; in most records, active means well fitted inhibition curve with a large enough effect; inconclusive means small, poorly fitted or top-dose-only effect, or another doubt; inactive means no such curve, though single readings can be large or run the other way. No potency is given beside an inconclusive call; the fits are too rough. On the % scale 0 is the no-effect control and ±100 the full control effect; potency means the concentration at half of the fitted maximal effect; tags describe the fitted curve by direction and shape.", "data": [{"experiment": "Primary qHTS for delayed death inhibitors of the malarial parasite plastid, 48 hour incubation", "settings": "P. falciparum luciferase growth in erythrocytes; series mostly up to 28.7 µM; activity change, negative = inhibition: at the top concentration", "in_short": "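A one-generation exposure of luciferase-tagged malaria parasites in RPMI 1640/Albumax erythrocyte culture, 37 C and 5% CO2. Inhibition is inferred from decreased luminescence after adding detection reagent.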", "values": [{"smiles": "CCCN(Cc1cc2cc(C)ccc2[nH]c1=O)C(=O)c1cccc(OC)c1", "Potency": "inconclusive [inhibitor, single point]"}, {"smiles": "CCOC(=O)N1CCN(CC(O)COc2ccccc2[N+](=O)[O-])CC1", "note": "(stereo not drawn)", "activity change, negative = inhibition": "inactive: 7.44%"}, {"smiles": "COc1ccc(N2C(=O)CC(N3CC=C(c4ccccc4)CC3)C2=O)cc1", "note": "(stereo not drawn)", "Potency": "inconclusive [inhibitor, single point]"}, {"smiles": "N#CCC(=O)Nc1ccc(C(=O)OCC(=O)N(C2CCCCC2)C2CCCCC2)cc1", "Potency": "active: 11.7 µM"}, {"smiles": "CCN(CC)CCOc1ccc(Cc2ccccc2)cc1", "Potency": "inconclusive [inhibitor, single point]"}, {"smiles": "COc1ccc(NCC(=O)Nc2ccc(Cl)cc2C)c(OC)c1", "Potency": "inconclusive [inhibitor, single point]"}, {"smiles": "CC(=O)NC(c1cccs1)c1cc(Br)c2cccnc2c1O", "note": "(stereo not drawn)", "Potency": "inconclusive [inhibitor, partial curve, poor fit]"}, {"smiles": "O=[N+]([O-])c1ccc(NC(=S)N2CCc3ccccc3C2)cc1", "activity change, negative = inhibition": "inactive: -24.7%"}, {"smiles": "CCCn1ncc(CN2CCCC(C(=O)c3cccc(OC)c3)C2)c1C", "note": "(stereo not drawn)", "Potency": "inconclusive [inhibitor, single point]"}, {"smiles": "CSCCC(NC(=O)c1ccccc1Cl)C(=O)N1CCC1", "note": "(stereo not drawn)", "activity change, negative = inhibition": "inactive: 3.57%"}, {"smiles": "COc1cccc(NC(=O)CN(C)C(=O)c2cccnc2Sc2ccc(C)c(C)c2)c1", "Potency": "inconclusive [inhibitor, partial curve, poor fit]"}, {"smiles": "CN1C(=O)C(N=Nc2ccccc2C(=O)O)N(C)C1=S", "note": "(stereo not drawn)", "Potency": "inconclusive [inhibitor, partial curve]"}, {"smiles": "CCOC(=O)N1CCN(c2nc(SC)nc3sc4c(c23)CC(C)(C)OC4)CC1", "Potency": "active: 3.7 µM"}, {"smiles": "CCNC(=O)NC(=O)C(C)N1C(=O)NC(c2ccccc2)(c2ccccc2)C1=O", "note": "(stereo not drawn)", "Potency": "inconclusive [inhibitor, partial curve]"}, {"smiles": "CCCCCC1CC(CC(C)C(=O)Nc2nncs2)C(=O)O1", "note": "(stereo not drawn)", "Potency": "inconclusive [inhibitor, single point]"}, {"smiles": "Cc1ccccc1NC(=O)Cn1c(=O)n(Cc2ccccc2)c(=O)c2c(C)c(C)sc21", "Potency": "inconclusive [inhibitor, partial curve]"}, {"smiles": "O=C(N/N=C/c1ccccc1F)c1ccccc1OCc1ccccc1", "Potency": "inconclusive [inhibitor, single point]"}, {"smiles": "Cc1cc(NC(=O)CSCc2ccc([N+](=O)[O-])cc2)no1", "activity change, negative = inhibition": "inactive: 2.54%"}, {"smiles": "CCc1nnc(NC(=O)CSc2nc3c(cc2C#N)CCC3)s1", "activity change, negative = inhibition": "inactive: 135%"}, {"smiles": "O=C(/C(=C/c1ccc(Cl)cc1)c1nc2ccccc2[nH]1)c1cccs1", "Potency": "active: 1.65 µM"}, {"smiles": "Nc1nc2ccc(S(=O)(=O)N3CCCCC3)cc2s1", "Potency": "inconclusive [inhibitor, single point]"}, {"smiles": "CS(=O)(=O)N(CCc1ccccc1)CC(=O)Nc1ccc2c(c1)OCO2", "activity change, negative = inhibition": "inactive: 3.44%"}, {"smiles": "C#CCOc1ccc2c(c1)c(C(C)=O)c(C)n2Cc1ccccc1", "Potency": "inconclusive [inhibitor, partial curve]"}, {"smiles": "Cc1ccc(S(=O)(=O)CC(c2ccccc2)N2CCOCC2)cc1", "note": "(stereo not drawn)", "activity change, negative = inhibition": "inactive: 1.98%"}, {"smiles": "Cc1c(CC(=O)O)c(=O)oc2c(C)c3occ(-c4ccc(F)cc4)c3cc12", "activity change, negative = inhibition": "inactive: 26%"}, {"smiles": "CCCSC(=S)c1c(C)[nH]n(-c2ccccc2)c1=O", "activity change, negative = inhibition": "inactive: 0.546%"}, {"smiles": "CCN(CC)S(=O)(=O)c1ccc(N2CCOCC2)c(NC(=S)NC(=O)c2ccco2)c1", "Potency": "active: 2.62 µM"}, {"smiles": "COc1cc2c(cc1OC)CN(CC(=O)Nc1ccc(C)c(S(=O)(=O)N3CCOCC3)c1)CC2", "Potency": "inconclusive [inhibitor, partial curve]"}, {"smiles": "O=C(COC(=O)c1ccccc1-n1cnnn1)c1ccc(F)cc1", "activity change, negative = inhibition": "inactive: 195%"}, {"smiles": "Cc1cc(C)nc(N/N=C/c2ccc3c(c2)OCCO3)n1", "activity change, negative = inhibition": "inactive: 63.3%"}, {"smiles": "CCC(=O)Nc1ccc(C(=O)CN2C(=O)NC3(CCOc4ccccc43)C2=O)cc1", "note": "(stereo not drawn)", "Potency": "inconclusive [inhibitor, partial curve, poor fit]"}, {"smiles": "COc1ccc(CN(CC2CCC(C(=O)O)CC2)C(=S)Nc2ccccc2OC)cc1", "note": "(stereo not drawn)", "Potency": "inconclusive [inhibitor, partial curve, poor fit]"}, {"smiles": "COc1cc(C(=O)NCCc2cc3c(OC)ccc(OC)c3[nH]c2=O)cc(OC)c1OC", "Potency": "inconclusive [inhibitor, single point]"}, {"smiles": "O=S(=O)(c1ccc(F)cc1)N1CCC(c2nc3ccccc3[nH]2)CC1", "Potency": "inconclusive [inhibitor, single point]"}, {"smiles": "N=c1c2c(n(Cc3ccc(Cl)c(Cl)c3)c3c1CCC3)CCCC2", "Potency": "active: 0.147 µM"}, {"smiles": "COc1cc(/C=N\\NC(=O)c2sc(N)nc2C)cc(OC)c1OC", "Potency": "inconclusive [inhibitor, partial curve, poor fit]"}, {"smiles": "CCn1c(CNc2nc(-c3ccccc3)cs2)nnc1SCC(=O)NCc1ccccc1", "Potency": "inconclusive [inhibitor, partial curve, poor fit]"}, {"smiles": "CCn1c(-c2cc(-c3ccc(C)c(C)c3)nc3ccccc23)n[nH]c1=S", "Potency": "active: 4.15 µM"}, {"smiles": "COc1ccc(NC(=O)CCNC(=O)c2ccco2)cc1S(=O)(=O)N(C)C", "activity change, negative = inhibition": "inactive: 4.57%"}, {"smiles": "CC1(C)CC2(CC(c3cccs3)c3cc(Cl)c(O)cc3O2)NC(=S)N1", "note": "(stereo not drawn)", "Potency": "inconclusive [inhibitor, full curve, poor fit]"}, {"smiles": "C/C1=C2N=C(/C=C3N=C(/C(C)=C4\\[N-]C(C)(C5N=C1C(C)(CCC(=O)NCC(C)OP(=O)([O-])O[C@H]1C(O)C(n6cnc7cc(C)c(C)cc76)O[C@@H]1CO)C5CC(N)=O)C(C)(CC(N)=O)C4CCC(N)=O)C(C)(CC(N)=O)C\\3CCC(N)=O)C(C)(C)C/2CCC(N)=O.[CH2-]C1OC(n2cnc3c(N)ncnc32)C(O)C1O.[Co]", "note": "(stereo partly drawn)", "Potency": "active: 8.49 µM"}, {"smiles": "NNc1nc2sc3c(c2c(=O)n1C1CCCCC1)CCN(Cc1ccccc1)C3", "Potency": "inconclusive [inhibitor, partial curve, poor fit]"}, {"smiles": "COc1ccccc1NC(=O)Cn1cc(C(=O)c2ccco2)c2ccccc21", "Potency": "inconclusive [inhibitor, partial curve]"}, {"smiles": "Cc1ccc(S(=O)(=O)c2c(N)n(NC(=O)c3ccco3)c3nc4ccccc4nc23)cc1", "Potency": "inconclusive [inhibitor, single point]"}, {"smiles": "Cc1ccc(-n2nc3c(c2NC(=O)c2ccc4c(c2)OCO4)CS(=O)C3)c(C)c1", "note": "(stereo not drawn)", "activity change, negative = inhibition": "inactive: -3.18%"}, {"smiles": "Cc1ccc(C(=O)N2c3ccc(F)cc3CCC2C)o1", "note": "(stereo not drawn)", "Potency": "inconclusive [inhibitor, partial curve, poor fit]"}, {"smiles": "CSc1ccc(CN(C)C(=O)CNC(=O)c2sc3ccccc3c2Cl)cc1", "activity change, negative = inhibition": "inactive: -0.311%"}, {"smiles": "COC(=O)c1ccccc1NC(=O)COC(=O)[C@H](C)NC(N)=O", "Potency": "inconclusive [inhibitor, single point]"}, {"smiles": "COc1ccc(CCC(=O)Nc2cc(S(=O)(=O)N3CCCCC3)ccc2N(C)C)cc1", "Potency": "active: 10.4 µM"}, {"smiles": "COCCCn1c(N)c(C(=O)NCc2ccco2)c2nc3ccccc3nc21", "Potency": "active: 9.28 µM"}, {"smiles": "COc1ccc(C(=O)CSc2n[nH]c(-c3ccncc3)n2)cc1[N+](=O)[O-]", "Potency": "inconclusive [inhibitor, partial curve]"}, {"smiles": "COc1cc(Cl)c(C)cc1NC(=O)CC1SC(N2CCOCC2)=NC1=O", "note": "(stereo not drawn)", "Potency": "inconclusive [inhibitor, single point]"}, {"smiles": "CC(Oc1ccc2c(-c3ccccc3)cc(=O)oc2c1)C(=O)NCC(O)c1ccccc1", "note": "(stereo not drawn)", "activity change, negative = inhibition": "inactive: -6.96%"}, {"smiles": "CC(=O)c1cccc(CN2CCN(Cc3ccc(F)cc3)C(CCO)C2)c1", "note": "(stereo not drawn)", "activity change, negative = inhibition": "inactive: 0%"}, {"smiles": "COc1ccccc1-c1noc(-c2cccs2)n1", "activity change, negative = inhibition": "inactive: 208%"}, {"smiles": "CC(Sc1nnc2c(n1)C1(C)CCC2C1(C)C)C(=O)Nc1ccccc1", "note": "(stereo not drawn)", "Potency": "inconclusive [inhibitor, single point]"}, {"smiles": "O=c1c2ccccc2nc(/C=C/c2cccnc2)n1CCc1ccccc1", "Potency": "inconclusive [inhibitor, partial curve]"}, {"smiles": "CCOC(=O)c1ccc(NC(=O)CSC(=S)N2CCOCC2)cc1", "Potency": "inconclusive [inhibitor, single point]"}, {"smiles": "CCc1c(O)nc(SCC(=O)Nc2ccc(C)cc2)n(C2CCCCC2)c1=O", "Potency": "inconclusive [inhibitor, single point]"}, {"smiles": "CCc1ccccc1Nc1nc(N)nc(COC(=O)c2cccn2C)n1", "activity change, negative = inhibition": "inactive: -9.94%"}, {"smiles": "CCN(CC)CCCNc1cc(C(F)(F)F)c(C#N)c2nc3ccccc3n12", "Potency": "inconclusive [inhibitor, single point]"}, {"smiles": "CCC(C(=O)Nc1cc(F)ccc1F)n1nc(C)c2c(C)n(-c3ccc(C)cc3)nc2c1=O", "note": "(stereo not drawn)", "Potency": "inconclusive [inhibitor, single point]"}, {"smiles": "COc1ccccc1-c1sc2cc3c(cc2c1C#CC1(O)CCCCC1)OCO3", "Potency": "inconclusive [inhibitor, partial curve]"}, {"smiles": "C/C(=N\\NC(=S)NCc1ccccc1)c1ccc(Cl)cc1", "Potency": "inconclusive [inhibitor, single point]"}, {"smiles": "CCOC(=O)c1cnn(-c2ccccc2)c1-n1cccc1C(=O)C(=O)Nc1ccc(F)cc1", "activity change, negative = inhibition": "inactive: -11.8%"}, {"smiles": "CCOC(=O)c1ccc(NC(=O)C2=C(C)Nc3nc(CCCO)nn3C2c2ccc(OC)cc2)cc1", "note": "(stereo not drawn)", "Potency": "inconclusive [inhibitor, single point]"}, {"smiles": "Cc1cc(C(=O)NCc2ccccc2Cl)n(-c2ccccc2)n1", "activity change, negative = inhibition": "inactive: 16.8%"}, {"smiles": "COc1ccc(NS(=O)(=O)c2ccc(C)c(C(=O)N(C)Cc3ccc(OC)cc3OC)c2)cc1", "Potency": "inconclusive [inhibitor, partial curve, poor fit]"}]}]}
